{"source": "the supplement of paper PMC8728848", "assay_in_all_cases": "glycan array binding signal (z-score within array); higher = stronger binding", "conditions_in_all_cases": "glycan notation: IUPAC condensed, linker removed", "key": {"Fuc(a1-2)Gal": {"target": "Fuc(a1-2)Gal", "procedure,_shortened": "(§1)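 From the Consortium for Functional Glycomics database, 3228 arrays were curated, keeping only those whose protein sequence was available. Binding is given as a within-array Z-score averaged across arrays sharing a protein sequence and across linkers. Negative Z-scores can be read as non-binding.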"}, "Fuc(a1-2)Gal(b1-3)GalNAc": {"target": "Fuc(a1-2)Gal(b1-3)GalNAc", "procedure,_shortened": "as §1"}, "[1]": {"target": "Fuc(a1-2)Gal(b1-3)GalNAc(a1-3)[Fuc(a1-2)]Gal(b1-4)Glc", "procedure,_shortened": "as §1"}, "[2]": {"target": "Fuc(a1-2)Gal(b1-3)GalNAc(a1-3)[Fuc(a1-2)]Gal(b1-4)GlcNAc", "procedure,_shortened": "as §1"}, "[3]": {"target": "Fuc(a1-2)Gal(b1-3)GalNAc(b1-3)Gal", "procedure,_shortened": "as §1"}, "[4]": {"target": "Fuc(a1-2)Gal(b1-3)GalNAc(b1-3)Gal(a1-4)Gal(b1-4)Glc", "procedure,_shortened": "as §1"}, "[5]": {"target": "Fuc(a1-2)Gal(b1-3)GalNAc(b1-4)[Neu5Ac(a2-3)]Gal(b1-4)Glc", "procedure,_shortened": "as §1"}, "Fuc(a1-2)Gal(b1-3)GlcNAc": {"target": "Fuc(a1-2)Gal(b1-3)GlcNAc", "procedure,_shortened": "as §1"}, "[6]": {"target": "Fuc(a1-2)Gal(b1-3)GlcNAc(b1-2)Man(a1-3)[Fuc(a1-2)Gal(b1-3)GlcNAc(b1-2)Man(a1-6)]Man(b1-4)GlcNAc(b1-4)GlcNAc", "procedure,_shortened": "as §1"}, "[7]": {"target": "Fuc(a1-2)Gal(b1-3)GlcNAc(b1-2)Man(a1-3)[Fuc(a1-2)Gal(b1-3)GlcNAc(b1-2)Man(a1-6)]Man(b1-4)GlcNAc(b1-4)[Fuc(a1-6)]GlcNAc", "procedure,_shortened": "as §1"}, "[8]": {"target": "Fuc(a1-2)Gal(b1-3)GlcNAc(b1-3)Gal(b1-4)Glc", "procedure,_shortened": "as §1"}, "[9]": {"target": "Fuc(a1-2)Gal(b1-3)GlcNAc(b1-3)GalNAc", "procedure,_shortened": "as §1"}, "[10]": {"target": "Fuc(a1-2)Gal(b1-3)GlcNAc(b1-3)[Fuc(a1-2)Gal(b1-3)GlcNAc(b1-6)]GalNAc", "procedure,_shortened": "as §1"}, "[11]": {"target": "Fuc(a1-2)Gal(b1-3)GlcNAc(b1-3)[Gal(b1-4)GlcNAc(b1-6)]Gal(b1-4)Glc", "procedure,_shortened": "as §1"}, "[12]": {"target": "Fuc(a1-2)Gal(b1-3)GlcNAc(b1-3)[Neu5Ac(a2-6)Gal(b1-4)GlcNAc(b1-6)]Gal(b1-4)Glc", "procedure,_shortened": "as §1"}, "[13]": {"target": "Fuc(a1-2)Gal(b1-3)GlcNAc6S", "procedure,_shortened": "as §1"}, "[14]": {"target": "Fuc(a1-2)Gal(b1-3)[Fuc(a1-4)]GlcNAc", "procedure,_shortened": "as §1"}, "[15]": {"target": "Fuc(a1-2)Gal(b1-3)[Fuc(a1-4)]GlcNAc(b1-2)Man(a1-3)[Fuc(a1-2)Gal(b1-3)[Fuc(a1-4)]GlcNAc(b1-2)Man(a1-3)]Man(b1-4)GlcNAc(b1-4)GlcNAc", "procedure,_shortened": "as §1"}, "[16]": {"target": "Fuc(a1-2)Gal(b1-3)[Fuc(a1-4)]GlcNAc(b1-2)Man(a1-3)[Fuc(a1-2)Gal(b1-3)[Fuc(a1-4)]GlcNAc(b1-2)Man(a1-6)]Man(b1-4)GlcNAc(b1-4)[Fuc(a1-6)]GlcNAc(b1-4)[Fuc(a1-6)]GlcNAc", "procedure,_shortened": "as §1"}, "[17]": {"target": "Fuc(a1-2)Gal(b1-3)[Fuc(a1-4)]GlcNAc(b1-3)[Fuc(a1-3)[Gal(b1-4)]GlcNAc(b1-6)]Gal(b1-4)Glc", "procedure,_shortened": "as §1"}, "[18]": {"target": "Fuc(a1-2)Gal(b1-3)[Fuc(a1-4)]GlcNAc(b1-3)[Gal(b1-4)GlcNAc(b1-6)]Gal(b1-4)Glc", "procedure,_shortened": "as §1"}, "[19]": {"target": "Fuc(a1-2)Gal(b1-4)Fuc(a1-3)]GlcNAc(b1-2)Man(a1-3)[Fuc(a1-2)Gal(b1-4)[Fuc(a1-3)]GlcNAc(b1-2)Man(a1-6)]Man(b1-4)GlcNAc(b1-4)GlcNAc", "procedure,_shortened": "as §1"}, "Fuc(a1-2)Gal(b1-4)Glc": {"target": "Fuc(a1-2)Gal(b1-4)Glc", "procedure,_shortened": "as §1"}, "Fuc(a1-2)Gal(b1-4)Glc6S": {"target": "Fuc(a1-2)Gal(b1-4)Glc6S", "procedure,_shortened": "as §1"}, "Fuc(a1-2)Gal(b1-4)GlcNAc": {"target": "Fuc(a1-2)Gal(b1-4)GlcNAc", "procedure,_shortened": "as §1"}, "[20]": {"target": "Fuc(a1-2)Gal(b1-4)GlcNAc(b1-2)Man", "procedure,_shortened": "as §1"}, "[21]": {"target": "Fuc(a1-2)Gal(b1-4)GlcNAc(b1-2)Man(a1-3)[Fuc(a1-2)Gal(b1-4)GlcNAc(b1-2)Man(a1-6)]Man(b1-4)GlcNAc(b1-4)GlcNAc", "procedure,_shortened": "as §1"}, "[22]": {"target": "Fuc(a1-2)Gal(b1-4)GlcNAc(b1-2)Man(a1-3)[Fuc(a1-2)Gal(b1-4)GlcNAc(b1-2)Man(a1-6)]Man(b1-4)GlcNAc(b1-4)[Fuc(a1-6)]GlcNAc", "procedure,_shortened": "as §1"}, "[23]": {"target": "Fuc(a1-2)Gal(b1-4)GlcNAc(b1-2)[Fuc(a1-2)Gal(b1-4)GlcNAc(b1-4)]Man(a1-3)[Fuc(a1-2)Gal(b1-4)GlcNAc(b1-2)Man(a1-6)]Man(b1-4)GlcNAc(b1-4)GlcNAc", "procedure,_shortened": "as §1"}, "[24]": {"target": "Fuc(a1-2)Gal(b1-4)GlcNAc(b1-3)Gal(b1-4)GlcNAc", "procedure,_shortened": "as §1"}}, "note": "The other results are listed elsewhere or left out."}
{"binder": "Epa6 (Candida glabrata), Q6DTM7_CANGB (protein) MGSSHHHHHHSSGLVPRGSHMKDDYSSSLSNNNLGWTDPTEFPLGCSPNVTTPKNGLSMELYSYDYLKSGSNPCWDAAYLDPNYPRTGYKSHRLLAKVENVAGNINFYYHAPMGCTSLFDTLPQAYNYRTPLTMTNFTMLLYGYFKPKVTGYHTFTISADDLLFVNFGAGNAFDCCKRESSADDFGNYQAYAVWGSQTAKDDLTVHLDAGLYYPIRIFFNNRDNDGALSLTLKTESDPNPVIDFSDYFYSFDDTKDGCPGLVSYDTS", "values": [{"measurement": "glycan array binding signal (z-score)", "setting": "Fuc(a1-2)Gal", "value": -0.308}, {"measurement": "glycan array binding signal (z-score)", "setting": "Fuc(a1-2)Gal(b1-3)GalNAc", "value": -0.296}, {"measurement": "glycan array binding signal (z-score)", "setting": "[1]", "value": -0.322}, {"measurement": "glycan array binding signal (z-score)", "setting": "[2]", "value": 0.329}, {"measurement": "glycan array binding signal (z-score)", "setting": "[3]", "value": 0.066}, {"measurement": "glycan array binding signal (z-score)", "setting": "[4]", "value": -0.243}, {"measurement": "glycan array binding signal (z-score)", "setting": "[5]", "value": -0.155}, {"measurement": "glycan array binding signal (z-score)", "setting": "Fuc(a1-2)Gal(b1-3)GlcNAc", "value": -0.259}, {"measurement": "glycan array binding signal (z-score)", "setting": "[6]", "value": -0.316}, {"measurement": "glycan array binding signal (z-score)", "setting": "[7]", "value": -0.32}, {"measurement": "glycan array binding signal (z-score)", "setting": "[8]", "value": -0.319}, {"measurement": "glycan array binding signal (z-score)", "setting": "[9]", "value": -0.299}, {"measurement": "glycan array binding signal (z-score)", "setting": "[10]", "value": -0.194}, {"measurement": "glycan array binding signal (z-score)", "setting": "[11]", "value": -0.184}, {"measurement": "glycan array binding signal (z-score)", "setting": "[12]", "value": -0.287}, {"measurement": "glycan array binding signal (z-score)", "setting": "[13]", "value": -0.274}, {"measurement": "glycan array binding signal (z-score)", "setting": "[14]", "value": -0.302}, {"measurement": "glycan array binding signal (z-score)", "setting": "[15]", "value": -0.229}, {"measurement": "glycan array binding signal (z-score)", "setting": "[16]", "value": -0.239}, {"measurement": "glycan array binding signal (z-score)", "setting": "[17]", "value": -0.282}, {"measurement": "glycan array binding signal (z-score)", "setting": "[18]", "value": -0.277}, {"measurement": "glycan array binding signal (z-score)", "setting": "[19]", "value": -0.112}, {"measurement": "glycan array binding signal (z-score)", "setting": "Fuc(a1-2)Gal(b1-4)Glc", "value": -0.123}, {"measurement": "glycan array binding signal (z-score)", "setting": "Fuc(a1-2)Gal(b1-4)Glc6S", "value": -0.267}, {"measurement": "glycan array binding signal (z-score)", "setting": "Fuc(a1-2)Gal(b1-4)GlcNAc", "value": -0.322}, {"measurement": "glycan array binding signal (z-score)", "setting": "[20]", "value": -0.301}, {"measurement": "glycan array binding signal (z-score)", "setting": "[21]", "value": -0.269}, {"measurement": "glycan array binding signal (z-score)", "setting": "[22]", "value": -0.331}, {"measurement": "glycan array binding signal (z-score)", "setting": "[23]", "value": -0.318}, {"measurement": "glycan array binding signal (z-score)", "setting": "[24]", "value": -0.305}]}
